Source: patent publication US4602011A, “Antimicrobial compositions and methods of using same” (Chapman Chemical Company, priority 1982, dated 1986)
In brackets after ≈: the same amount, converted by molar mass.

Columns and labels:
Experiment in all cases: minimum bactericidal concentration
[1] = tested on: Klebsiella pneumoniae (4356); conditions: ppm of active ingredient
Escherichia coli (11229) = conditions: for MBC: Escherichia coli, 24 h, read-out: Minimum bactericidal concentration
[2] = tested on: Bacillus subtillis (37328); type: cell-based, Bacillus subtilis
[3] = tested on: Mycobacterium phlei (15610); type: cell-based
[4] = tested on: Bacillus megaterium (27327); conditions: ppm of active ingredient; "1" means 1 or less
Bacillus cereus = tested on: Bacillus cereus
Proteus vulgaris = conditions: ppm of active ingredient
Salmonella typhi (6539) = type: cell-based
[5] = tested on: Flavobacterium arboresceus (4358); conditions: ppm of active ingredient
[6] = tested on: Alcaligenes faecalis (337); conditions: ppm of active ingredient
[7] = tested on: Pseudomonas aeruginosa (15442); conditions: for MBC: Pseudomonas aeruginosa, 24 h, read-out: Minimum bactericidal concentration
[8] = tested on: Staphylococcus aureus (6538); type: cell-based; conditions: for MBC: Staphylococcus aureus, 24 h, read-out: Minimum bactericidal concentration
[9] = tested on: Bacillus lichenforms (27326)
[10] = tested on: Alcaligenes marshalii (21030); conditions: ppm of active ingredient
[11] = ppm of active ingredient, "1" means 1 or less
[12] = Bacillus, 24 h, read-out: Minimum bactericidal concentration

CCCCCCCCCCCCc1ccc(S(=O)(=O)O)cc1 [DDBSA, dodecyl benzene sulfonic acid]
Minimum bactericidal concentration [1]: 10,000 ppm
Minimum bactericidal concentration (Escherichia coli (11229); ppm of active ingredient): 10,000 ppm
Minimum bactericidal concentration [2, 11]: 100 ppm
Minimum bactericidal concentration [3, 11]: 10 ppm
Minimum bactericidal concentration [4]: 100 ppm
Minimum bactericidal concentration (Bacillus cereus; [11]): 100 ppm
Minimum bactericidal concentration (Proteus vulgaris): 1000 ppm
Minimum bactericidal concentration (Salmonella typhi (6539); ppm of active ingredient): 1000 ppm
Minimum bactericidal concentration [5]: 10 ppm
Minimum bactericidal concentration [6]: 1000 ppm
Minimum bactericidal concentration ([7]; ppm of active ingredient): 1000 ppm
Minimum bactericidal concentration [8, 11]: 100 ppm
Minimum bactericidal concentration [9, 11]: 100 ppm
Minimum bactericidal concentration [10]: 100 ppm

Oc1c(Cl)c(Cl)c(Cl)c(Cl)c1Cl [F]
MBC (Escherichia coli (11229)): 250 to 500 µg/mL (≈ 939 to 1880 µM)
MBC (Bacillus cereus; Bacillus cereus, 24 h, read-out: Minimum bactericidal concentration): 5 to 10 µg/mL (≈ 18.8 to 37.5 µM)
MBC [7]: 1000 to 2500 µg/mL (≈ 3750 to 9390 µM)
MBC [8]: 1 to 3 µg/mL (≈ 3.75 to 11.3 µM)
MBC [9, 12]: 2 to 5 µg/mL (≈ 7.51 to 18.8 µM)

CCCS(=O)(=O)c1c(Cl)cnc(Cl)c1Cl [G]
MBC (Escherichia coli (11229)): 165 µg/mL (≈ 572 µM)
MBC [2, 12]: 3 µg/mL (≈ 10.4 µM)
MBC ([3]; Mycolicibacterium phlei, 24 h, read-out: Minimum bactericidal concentration): 3 µg/mL (≈ 10.4 µM)
MBC (Salmonella typhi (6539); Salmonella enterica, TYPHI, 24 h, read-out: Minimum bactericidal concentration): 165 µg/mL (≈ 572 µM)
MBC [7]: 165 µg/mL (≈ 572 µM)
MBC [8]: 3 µg/mL (≈ 10.4 µM)
